Assay [1] deals with T1, CCR4 expressed on 293/EBNA-1 cells (human) (UniProt P51679).
T1 sequence (looked up): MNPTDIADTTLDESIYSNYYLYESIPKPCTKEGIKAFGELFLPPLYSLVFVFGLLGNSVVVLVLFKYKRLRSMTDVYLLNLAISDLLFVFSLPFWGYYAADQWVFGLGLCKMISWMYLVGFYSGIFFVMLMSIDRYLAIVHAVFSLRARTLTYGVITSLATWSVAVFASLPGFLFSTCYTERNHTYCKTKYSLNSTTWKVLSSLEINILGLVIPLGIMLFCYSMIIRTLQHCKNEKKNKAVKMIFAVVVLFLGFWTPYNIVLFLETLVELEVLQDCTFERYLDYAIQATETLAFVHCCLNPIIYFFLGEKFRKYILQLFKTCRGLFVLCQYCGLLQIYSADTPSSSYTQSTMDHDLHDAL
The experiment in a line: competition with 1 nM TARC-SEAP on 293/EBNA-1 cells expressing CCR4.

Amino acid sequences for entries named in this document (tags omitted). A change or cut given only in a name is not applied to a line headed by its entry. Residues count along the entry.
UniProt P10147, residues 23-92: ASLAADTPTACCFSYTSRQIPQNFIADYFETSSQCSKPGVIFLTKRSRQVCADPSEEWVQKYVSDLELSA
UniProt P13236, residues 24-92: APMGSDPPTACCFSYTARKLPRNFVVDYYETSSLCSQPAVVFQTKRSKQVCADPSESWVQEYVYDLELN
UniProt P13501, residues 24-91: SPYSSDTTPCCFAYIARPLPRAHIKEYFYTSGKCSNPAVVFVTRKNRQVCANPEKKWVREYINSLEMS
UniProt P13500, residues 24-99: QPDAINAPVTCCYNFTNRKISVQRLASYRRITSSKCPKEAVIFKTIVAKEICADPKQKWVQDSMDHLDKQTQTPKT
UniProt Q92583: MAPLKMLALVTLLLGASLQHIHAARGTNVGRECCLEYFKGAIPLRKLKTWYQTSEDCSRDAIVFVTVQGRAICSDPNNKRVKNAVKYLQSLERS
UniProt P78556, residues 27-96: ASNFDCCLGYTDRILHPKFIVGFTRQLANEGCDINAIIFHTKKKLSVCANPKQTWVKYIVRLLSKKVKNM

Assay [2] addresses T2, Duffy antigen/receptor for chemokine (DARC) on erythrocytes (UniProt Q16570).
T2 sequence (looked up): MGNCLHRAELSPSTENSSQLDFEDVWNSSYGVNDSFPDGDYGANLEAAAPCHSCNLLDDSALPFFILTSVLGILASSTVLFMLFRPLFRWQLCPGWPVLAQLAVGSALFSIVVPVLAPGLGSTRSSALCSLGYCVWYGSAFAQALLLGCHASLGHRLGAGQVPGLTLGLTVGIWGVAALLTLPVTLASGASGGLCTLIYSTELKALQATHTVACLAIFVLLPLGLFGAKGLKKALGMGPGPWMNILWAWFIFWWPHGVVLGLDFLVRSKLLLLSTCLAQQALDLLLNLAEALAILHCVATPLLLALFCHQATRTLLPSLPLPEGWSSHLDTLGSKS
In words: displacement of 0.66 nM 125I-labeled TARC from 10^8 erythrocytes.

Assay [3] has as its target T2, Duffy antigen/receptor for chemokine (DARC) on erythrocytes. In words: displacement of 125I-labeled TARC from erythrocytes. (In general: Loss of bound radioactivity is the signal in a displacement assay; it reports binding, not function.)

Results are given in words; binding and its absence hold for the method and conditions named. Some results given as binding are weak or reduced against the parent protein; the word gives no strength.

In the case of “MIP-1α (PeproTech) (from UniProt P10147 23-92) (ligand)”, the binding result in assay [1] is on record as “no binding (tested: 200 nM)”.

Turning to “MIP-1β (PeproTech) (from UniProt P13236 24-92) (ligand)”, the binding entry in assay [1] was “no binding (tested: 200 nM)”.

On to “RANTES (PeproTech) (from UniProt P13501 24-91) (ligand)”, for which the binding result in assay [2] is “binds”.

Regarding “MCP-1 (PeproTech) (from UniProt P13500 24-99) (ligand)”, in assay [1], the binding result is on record as “no binding (tested: 200 nM)”.

Regarding “human TARC (Thymus and Activation-Regulated Chemokine), mature secreted form, expressed in and purified from insect cells (from UniProt Q92583 24-94) (ligand)”, in assay [3], the binding entry is listed as “binds”.

“LARC (from UniProt P78556 27-96) (ligand)”: the binding entry in assay [1] was “no binding (tested: 200 nM)”.

(Values after patent publication US6793917.)
